# Laboratory results reported in the supplement of paper PMC10338343.
# ± gives the standard deviation. Over roughly 6,600 sequences, “pre-steady-state target cleavage rate” has its median near 0.07; the highest 2% begin near 0.72. Only a part is listed here, and it is no random draw.
# Test system: MIWI (PIWIL1) piRISC loaded with Kctd7 piRNA (30 nt)
# Assay: pre-steady-state target cleavage rate (min^-1); MIWI and MILI are mouse PIWI proteins and EfPiwi is from a freshwater sponge; tags in brackets are library labels; higher = faster piRNA-guided slicing of the target
# Details: guide: Kctd7 piRNA 5'p-UGUUAAUCUCUCAGAGAAGGUGACAGUGAU; auxiliary factor: 500 nM mouse GTSF1
# Description: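 Cleave-'n-Seq: a library of target RNAs (target site embedded in constant flanks, ACAGCATTCCGCGTTAGTGATATCCG... 5' flank; DNA-blocked outside the site) at 0.1 nM was incubated with 1 nM active mouse MILI or MIWI piRISC (synthetic 5'-monophosphorylated piRNA guide) with or without 500 nM mouse GTSF1 at 33 °C for 1 min to 16 h. Uncleaved targets were sequenced and normalised to non-target controls, and the pooled three trials were fitted to a burst-and-steady-state model to give the pre-steady-state cleavage rate (min^-1; k3 is constrained to at most 1e-4). Sequence is the target site only; target names encode pairing extent (gX:gY) and contiguous / 1-mismatch / 2-mismatch / bulge geometry. Fits with R² ≤ 0 are excluded.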
row,Sequence,pre-steady-state target cleavage rate
1,UAGUGUGUCACCCUCUCUGAGAGAUUAACA,0.6 ± 0.04
2,UAGUGUCUCACCUUCUCUGAGAGAUAAACA,0.211 ± 0.025
3,UUCACUGUCACCUUCUCUGUCUGAUUUUGA,0.00953 ± 0.0049
4,UAGUGAGUGACCUUGUCUGAGAGAUUAACA,0.0927 ± 0.013
5,AUCACUGUCACCAUCUCUGAGAGAUUAUCA,0.296 ± 0.033
6,UAGUGAGUCACCAUCUCUGAGACAUUAACA,0.146 ± 0.017
7,UAGUGUGUCACCAUCUGUGAGAGAUUAACA,0.344 ± 0.021
8,UAGUGACAGACCGUCUCUGAGAGAUUAACA,0.0219 ± 0.0047
9,UAGACUUGUCACCUUCUCUGAGAGAUUAACA,0.611 ± 0.08
10,AUCACUGUCACCAACUCUGAGAGAUUAACA,0.666 ± 0.054
11,UAGUCUGUCACCUUCUCUGAGAGAUAUAGA,0.0222 ± 0.0086
12,UUCACUGUCACCUUCUCUCUGAGAUUAUGA,0.00778 ± 0.0051
13,UACACUGUCACCUUCUCUGAGCGAUUAACA,0.101 ± 0.0096
14,UAGUCUGUCACCUUCUCUGAGACAUUAACA,0.174 ± 0.019
15,UUCACACACACCUUCUCUGAGAGAUUAACA,0.493 ± 0.027
16,UACUCUGUCACCUUCUCUGAGAGAUAUUGA,0.0791 ± 0.018
17,UAGUGACAGUGGAACUCUGACAGAUUUACA,< 0.0001
18,UAGUGACACACCUUCUCUCAGAGUUUAACA,0.0159 ± 0.0037
19,UAGUGAGUCACCUACUCUGAGACAUUAACA,0.0677 ± 0.01
20,AUCACUGUCACCUUCUCUGUGAGAUAAACA,0.172 ± 0.017
21,UAGUGACAGUCCUUCUCUGAGAGACUUAACA,0.00857 ± 0.0034
22,UACACUGACACCUUCUCAGAGAGAUUAACA,0.222 ± 0.022
23,UAGUGAGUCAGCUACUCUGAGAGAUUAACA,0.373 ± 0.027
24,AGUCACUGUCACCUUCUCUGAGAGAUUAACA,0.833 ± 0.057

row,Sequence,pre-steady-state target cleavage rate
1,UAGACUGUCACCUACUCUGAGAGAAUAACA,0.189 ± 0.037
2,UAGUCUGUCACCUUCUCUCAGAGAUAAACA,0.0533 ± 0.0059
3,UAGUGUGUCACCUUCUCUGAGUGAUUUACA,0.0154 ± 0.0075
4,UAGUCUGACACCUUCUCUGAGAGAUUAACA,0.609 ± 0.033
5,UAGAGUGUCACCUUCUGUGAGAGAUUAACA,0.578 ± 0.028
6,UAGUGUGUCACCUUCUCUGAGAGAUGAACA,0.0565 ± 0.012
7,UUCACUGUCACCAACUCUGAGAGAUUAACA,0.616 ± 0.053
8,UUCACUGUCACCUUGUCUGAGAGAUUUACA,0.671 ± 0.12
9,UUGACUGUCACCUUCACUGAGAGAUUAACA,0.429 ± 0.029
10,UAGUGUGUCAGCUUCUCUGAGAGAUAAACA,0.223 ± 0.02
11,AUCACUGUCACCUUCUCUGAGGGAUUAACA,0.75 ± 0.041
12,UAGACUGACACCUUCUCUGAGAGAUUUACA,0.281 ± 0.044
13,UUCUACUGUCACCUUCUCUGAGAGAUUAACA,0.677 ± 0.038
14,UAGUCUGUGUGCUUCUCUGAGAGAUUAAGA,0.00541 ± 0.0021
15,UUCACUGUCACCUUCUCUGAGUGAUUAAGA,0.0149 ± 0.0054
16,UAGUGACAGAGCUUCUCUGAGAGAUUAAGA,0.00666 ± 0.0032
17,UAGUGAGUCACCUUCUCUGAGGGAUUAACA,0.598 ± 0.032
18,UACACUGUCACCUUCUCUGAGACUUUAAGA,0.00614 ± 0.004
19,UAGACUGUCACCUUCACUGAGAGAUUAACA,0.517 ± 0.042
20,UAGUGACUCACCUAUCUCUGAGAGAUUAACA,0.158 ± 0.017
21,UAGUGACUCUCCUUGUCUGAGAGAUUAACA,0.0206 ± 0.0036
22,UACACUGACACCUUCUCUGAGAGAUAUUGA,0.0445 ± 0.017
23,UAGUCAUGUCACCUUCUCUGAGAGAUUAACA,0.571 ± 0.028
24,AUCACUGUCACCUUCUCAGAGAGAUUUUGA,0.242 ± 0.059

row,Sequence,pre-steady-state target cleavage rate
1,UAGACUGUCACUUUCUCUGAGAGAUUAACA,0.8 ± 0.043
2,UAGUGAGUCACCUUCUCUGAGAGGUUAACA,0.258 ± 0.019
3,UUCACUGACACGUUCUCUGAGAGAUUAACA,0.546 ± 0.026
4,UAGUGACACACCUUCUCGGAGAGAUUAACA,0.0476 ± 0.005
5,UAGACUGUCACCUUCACUGAGAGAAUAACA,0.402 ± 0.081
6,UAGUGACAGACCUUGUCUGAGAGUUUAACA,0.0133 ± 0.0041
7,UAGUGACUCCACCUUCUCUGAGAGAUUAACA,0.415 ± 0.04
8,UAGUCUGACACCUUCUCUGAGAGAUUUUGA,0.00378 ± 0.0025
9,AUCACUGUCACCUUCUCUGAGGAUUAACA,0.186 ± 0.051
10,UAGACUGUCUCCUUCUCUGAGAGAUUAUGA,0.0484 ± 0.0098
11,AUCACUGUCACCUUCUCUGACAGAUUUACA,0.0146 ± 0.0032
12,UAGUCUGUCACGUUCUCUGAGAGAUUAUGA,0.0167 ± 0.0043
13,UAGUGACAGACCUUCUCUGAGAGGAUUAACA,0.0286 ± 0.0057
14,AUCACUGUCACCUUCUCUGAGAGAUUUAGA,0.108 ± 0.024
15,UAGACUGUCACCUACUCAGAGAGAUUAACA,0.087 ± 0.0073
16,UACACUGUCACCUAGACUGAGAGAUUUUGA,0.00547 ± 0.0048
17,UAGUGUGUCAGCUUCUCUGAGAGAUUUUGA,0.00691 ± 0.0036
18,AUCUCUGUCACCUUCUCUCAGAGAUUAACA,0.105 ± 0.0088
19,UACACUGUGACCUUCUCUGAGAGAUUUACA,0.308 ± 0.042
20,UAGUGUGAGACCUUCUCUGAGAGAUUAAGA,0.0976 ± 0.027
21,UAGUGACUCACCAACUCUGAGAGAUUAAGA,0.00473 ± 0.0031
22,UAGUGACACACCUUCUCUGAGUGUUUAACA,0.00603 ± 0.004
23,UACUCUGUCACCUUCUCUGAGAGAUUUUGA,0.0843 ± 0.017
24,UAGUGAGUCACCUUCUCUGUGAGAUUUUGA,0.00479 ± 0.0046
